Experimental data from PubChem BioAssay (NCATS).
Inconclusive results, whose numbers are uncertain, are shown with a selection of clear calls. The source made the active and inactive calls. The call rests on the fitted dose curve; in most records, active means well fitted curve in either direction with a large enough effect (not every such curve was filed as active); inconclusive means small, poorly fitted or top-dose-only effect, or another doubt; inactive means flat fitted curve, though single readings scatter.

Experiment: NFAT Signaling Pathway (AID 444);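 further: carbachol stimulus at about its EC50 of 1 µM final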
Settings: Jurkat NFAT-bla M1, carbachol, beta-lactamase ratio, 5 h; at 17.2 µM (top of the series) unless noted
Method in brief: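 Jurkat cells with NFAT-driven β-lactamase reporter and co-expressed M1 receptor, stimulated with carbachol (final 1 uM, ~EC50), compound titration, 5 h at 37 °C. CCF4 loaded 1 h at RT; 460/530 nm ratio gave %activity and AC50.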
On the % scale 0 is the no-effect control and ±100 the full control effect.

SMILES | activity change, negative = inhibition
N[C@H](Cc1ccc(O)c(I)c1)C(=O)O | inactive: 8.86% [at 38 µM]
Oc1ccc2ccccc2c1Cc1c(O)ccc2ccccc12 | inconclusive: -42.9% [inhibitor] [at 7.69 µM]
O=C(c1ccco1)N1CCC2(CCN(Cc3ccccc3)CC2)CC1 | inconclusive: -61.1% [inhibitor] [at 7.69 µM]
COc1ccc(C(=O)N2CCC3(CC2)CCN(c2ccncc2)CC3)cc1 | inconclusive: -35% [inhibitor] [at 7.69 µM]
Nc1[nH]c(=O)nc2c1ncn2[C@H]1O[C@@H](CO)[C@@H](O)[C@@H]1O | inactive: 15.7% [at 7.69 µM]
O=C(O)/C=C\C=C/c1ccc2c(c1)OCO2 | inactive: 5.9% [at 7.69 µM]
Cc1cc2c(=O)[nH]c(N)nc2nc1C | inactive: 7.25% [at 7.69 µM]
COc1ccc(NC(=O)N2CCC3(CC2)CCN(C(=O)c2csnn2)CC3)cc1 | inactive: 3.59% [at 7.69 µM]
Clc1ccc2c(NCCNC3CCCCC3)ccnc2c1 | inconclusive: -33.3% [inhibitor] [at 7.69 µM]
Cc1nc2cnc(N3CCOCC3)nc2n(CCC#N)c1=O | inactive: -9.52% [at 7.69 µM]
C#C[C@@]1(O)CC[C@H]2[C@H]3CCC4=Cc5oncc5C[C@]4(C)[C@@H]3CC[C@@]21C | inconclusive: -75.2% [inhibitor] [at 38 µM]
